# Laboratory results published in paper PMC7181131, “N-Pyrazinoyl Substituted Amino Acids as Potential Antimycobacterial Agents—the Synthesis and Biological Evaluation of Enantiomers” (Molecules, 2020).
# Tested on: Staphylococcus aureus subsp. aureus CCM 4223 (ATCC 29213)
# Assay: microbe, parasite or virus in culture
# Conditions: 24 h, read-out: MIC SA
row,SMILES,MIC [µM]
1,"COC(=O)[C@H](C)NC(=O)c1cnccn1 (racemic) [PC-DL-Ala-Me, methyl (pyrazine-2-carbonyl)alaninate]",> 500
2,"CCOC(=O)[C@H](CC(C)C)NC(=O)c1cnccn1 (racemic) [PC-DL-Leu-Et, ethyl (pyrazine-2-carbonyl)leucinate]",> 500
3,"CCOC(=O)[C@H](Cc1ccccc1)NC(=O)c1cnccn1 (racemic) [PC-DL-Phe-Et, ethyl (pyrazine-2-carbonyl)phenylalaninate]",> 500
4,"CCOC(=O)[C@@H](NC(=O)c1cnccn1)C(C)C (racemic) [PC-DL-Val-Et, ethyl (pyrazine-2-carbonyl)valinate]",> 500
5,"C[C@@H](NC(=O)c1cnccn1)C(=O)O [PC-D-Ala, (pyrazine-2-carbonyl)-D-alanine]",> 500
6,"CCOC(=O)[C@@H](C)NC(=O)c1cnccn1 [PC-D-Ala-Et, ethyl (pyrazine-2-carbonyl)-D-alaninate]",> 500
7,"COC(=O)CC[C@@H](NC(=O)c1cnccn1)C(=O)OC [PC-D-Glu-diMe, dimethyl (pyrazine-2-carbonyl)-D-glutamate]",> 500
8,"COC(=O)[C@@H](CC(C)C)NC(=O)c1cnccn1 [PC-D-Leu-Me, methyl (pyrazine-2-carbonyl)-D-leucinate]",> 500
9,"COC(=O)[C@@H](COC(C)(C)C)NC(=O)c1cnccn1 [PC-D-OtBu-Ser-Me, methyl O-(tert-butyl)-N-(pyrazine-2-carbonyl)-D-serinate]",> 500
10,"COC(=O)[C@H](NC(=O)c1cnccn1)[C@H](C)OC(C)(C)C [PC-D-OtBu-Thr-Me, methyl O-(tert-butyl)-N-(pyrazine-2-carbonyl)-D-threoninate]",> 500
11,"O=C(N[C@H](CO)C(=O)O)c1cnccn1 [PC-D-Ser, (pyrazine-2-carbonyl)-D-serine]",> 500
12,"COC(=O)[C@@H](CO)NC(=O)c1cnccn1 [PC-D-Ser-Me, methyl (pyrazine-2-carbonyl)-D-serinate]",250
13,"COC(=O)[C@H](NC(=O)c1cnccn1)[C@H](C)O [PC-D-Thr-Me, methyl (pyrazine-2-carbonyl)-D-threoninate]",> 500
14,"CCOC(=O)[C@@H](Cc1c[nH]c2ccccc12)NC(=O)c1cnccn1 [PC-D-Trp-Et, ethyl (pyrazine-2-carbonyl)-D-tryptophanate]",> 500
15,"COC(=O)[C@@H](Cc1ccc(O)cc1)NC(=O)c1cnccn1 [PC-D-Tyr-Me, methyl (pyrazine-2-carbonyl)-D-tyrosinate]",> 500
16,"COC(=O)[C@H](NC(=O)c1cnccn1)C(C)C [PC-D-Val-Me, methyl (pyrazine-2-carbonyl)-D-valinate]",> 500
17,"COC(=O)C(NC(=O)c1cnccn1)c1ccccc1 [PC-D/L-Pgl-Me, methyl 2-phenyL-2-(pyrazine-2-carboxamido)acetate]",> 500
18,"O=C(O)CNC(=O)c1cnccn1 [PC-Gly, (pyrazine-2-carbonyl)glycine]",> 500

row,SMILES,MIC [µM]
1,"CCOC(=O)CNC(=O)c1cnccn1 [PC-Gly-Et, ethyl (pyrazine-2-carbonyl)glycinate]",> 500
2,"C[C@H](NC(=O)c1cnccn1)C(=O)O [PC-L-Ala, (pyrazine-2-carbonyl)-L-alanine]",> 500
3,"CCOC(=O)[C@H](C)NC(=O)c1cnccn1 [PC-L-Ala-Et, ethyl (pyrazine-2-carbonyl)-L-alaninate]",125
4,"CCOC(=O)C[C@H](NC(=O)c1cnccn1)C(=O)OCC [PC-L-Asp-diEt, diethyl (pyrazine-2-carbonyl)-L-aspartate]",> 500
5,"CCOC(=O)CC[C@H](NC(=O)c1cnccn1)C(=O)OCC [PC-L-Glu-diEt, diethyl (pyrazine-2-carbonyl)-L-glutamate]",> 500
6,"COC(=O)[C@H](CC(C)C)NC(=O)c1cnccn1 [PC-L-Leu-Me, methyl (pyrazine-2-carbonyl)-L-leucinate]",> 500
7,"COC(=O)[C@H](CCSC)NC(=O)c1cnccn1 [PC-L-Met-Me, methyl (pyrazine-2-carbonyl)-L-methioninate]",> 500
8,"O=C(N[C@@H](COCc1ccccc1)C(=O)O)c1cnccn1 [PC-L-OBn-Ser, O-benzyl-N-(pyrazine-2-carbonyl)-L-serine]",> 500
9,"COC(=O)[C@H](COCc1ccccc1)NC(=O)c1cnccn1 [PC-L-OBn-Ser-Me, methyl O-benzyl-N-(pyrazine-2-carbonyl)-L-serinate]",> 250
10,"COC(=O)[C@H](COC(C)(C)C)NC(=O)c1cnccn1 [PC-L-OtBu-Ser-Me, methyl O-(tert-butyl)-N-(pyrazine-2-carbonyl)-L-serinate]",> 500
11,"COC(=O)[C@@H](NC(=O)c1cnccn1)[C@@H](C)OC(C)(C)C [PC-L-OtBu-Thr-Me, methyl O-(tert-butyl)-N-(pyrazine-2-carbonyl)-L-threoninate]",31.2
12,"O=C(N[C@@H](CSCc1ccccc1)C(=O)O)c1cnccn1 [PC-L-SBn-Cys, S-benzyL-N-(pyrazine-2-carbonyl)-L-cysteine]",250
13,"COC(=O)[C@H](CO)NC(=O)c1cnccn1 [PC-L-Ser-Me, methyl (pyrazine-2-carbonyl)-L-serinate]",> 500
14,"COC(=O)[C@@H](NC(=O)c1cnccn1)[C@@H](C)O [PC-L-Thr-Me, methyl (pyrazine-2-carbonyl)-L-threoninate]",500
15,"CCOC(=O)[C@H](Cc1c[nH]c2ccccc12)NC(=O)c1cnccn1 [PC-L-Trp-Et, ethyl (pyrazine-2-carbonyl)-L-tryptophanate]",> 500
16,"CCOC(=O)[C@H](Cc1ccc(O)cc1)NC(=O)c1cnccn1 [PC-L-Tyr-Et, ethyl (pyrazine-2-carbonyl)-L-tyrosinate]",> 500
17,"COC(=O)[C@@H](NC(=O)c1cnccn1)C(C)C [PC-L-Val-Me, methyl (pyrazine-2-carbonyl)-L-valinate]",> 500
18,"C=C(NC(=O)c1cnccn1)C(=O)OC [PC-MeAcr, methyl 2-(pyrazine-2-carboxamido)acrylate]",> 125

# Same assay, conditions: 24 h, read-out: MIC, visual detection
row,SMILES,MIC [µg/mL]
1,"CNC(C)C1CCC(N)C(OC2C(N)CC(N)C(OC3OCC(C)(O)C(NC)C3O)C2O)O1 (centres unmarked) [gentamicin, reference compound]",0.5

# Same assay, conditions: ATCC29213|CCM4223, 24 h, read-out: MIC, spectrophotometric detection
row,SMILES,MIC [µg/mL]
1,"CNC(C)C1CCC(N)C(OC2C(N)CC(N)C(OC3OCC(C)(O)C(NC)C3O)C2O)O1 (centres unmarked) [gentamicin, reference compound]",1
